In the test the target is human PD-1 on human T cells (CD4+ T cells from PBMC; Jurkat T cells) (human, UniProt Q15116). Kind of test: cell-based or functional assay.

B1: human PD-L1.Ig (extracellular region of human PD-L1 fused to hinge-CH2-CH3 of murine Ig gamma 2a) (Fc fusion)
chain: not shown
notes: domain: hinge-CH2-CH3; also called PD-L1-Fc; hPD-L1.Fc
On to B1, for which the “proliferation of human CD4+ T cells (3H-thymidine, 96 hours), anti-CD3 mAb/PD-L1.Ig beads relative to anti-CD3 mAb/control Ig beads” value is 69 % decrease.
